Structures are written as SMILES. Several values for one entry are separate records, joined by “and”; a condition that tells them apart may be missing. Identical values can stand only once.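 Results reflect a 48-hour exposure of cells in 96-well plates to compound at five concentrations. The concentration for 50% growth inhibition is given as GI50. TGI: total growth inhibition.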 Numbered stars: 1 amine (or outer) side, 2 acyl side, 3 side chain; on linkers, the order of the positions; unused ones are H or OH. Bridge positions count the residues as written; N and C are the ends. Square brackets hold non-standard residues; d marks the D form. Peptide text beside a SMILES is read from it. I, II: the chains in the order shown. Actinocin(9to1) = Cc1c2oc3c(C)ccc(C(=O)[*:1])c3nc-2c(C(=O)[*:2])c(N)c1=O; X44 = O=C1CC(C(=O)[*:2])N([*:1])C1; NMeV = CN[CH](C(=O)O)C(C)C; Sar = CNCC(=O)O

In this assay the test system is NCI-H322M lung. In words: NCI-60 cell line screen, 48 h.
`CN[C@]12CC3(C=CC(=O)C=C3)O[C@@]1(Cc1ccc(OC)cc1)N(C)C(=O)N2`: the GI50 is 4220 nM and the TGI amounted to 16.8 µM.

In the case of `CC(C)CC(NC(=O)C(CC(C)C)NC(=O)C(Cc1cnc[nH]1)NC(=O)C(C)NC(=O)C(NC(=O)C(C)NC(=O)C(Cc1c[nH]c2ccccc12)NC(=O)C(CCC(=O)O)NC(=O)C(N)Cc1ccccc1)C(C)C)C(N)=O` (stereo not given) (H-FEWAVAHLL-NH2; configuration not given here), the GI50 is 64800 nM and the TGI is over 100 µM.

Molecule `NC(CNO)C(=O)O` (stereo not given) came in with a TGI of over 100 µM.

The molecule `Oc1c2cc(Br)cc1CCc1cc(Br)cc(c1O)CC2` displayed a TGI of 63.2 µM.

In the case of `O=[N+]([O-])c1ccc2c(c1)c(N=NC(=S)NC1CCCCC1)c(O)n2CN1CCOCC1`, the TGI was 22 µM.

Turning to `O=C(Cn1cc(-c2ccccc2)nn1)NC1CCCC1`, the TGI was over 100 µM.

Consider `OCC1OC(Oc2cc(O)cc(/C=C\c3ccc(O)cc3)c2)C(O)C(O)C1O` (stereo not given), for which the TGI was over 100 µM.

`CC(=O)OCCCCn1cnc2nc(Nc3ccccc3)nc(Cl)c21` showed a TGI of over 100 µM.

In turn, `Oc1ccc(CNCc2ccccc2)c2cccnc12` had a TGI of 97.7 µM.

In turn, `N#CC(=S)Nc1ccc(Cl)c(Cl)c1` returned a TGI of over 76.4 µM.

Take `O=C(CCN1CC2CCC(CC2)C1)c1cccs1`: the TGI was over 100 µM.

Molecule `O=C(c1cccc(OCc2ccccc2)c1OCc1ccccc1)N1CCSC1=S` had a TGI of over 90.4 µM.

The molecule `CC1(C)CC[C@]2(C(=O)O)CC[C@]3(C)C(=CC[C@@H]4[C@@]5(C)C[C@H](O)[C@H](O)[C@@](C)(CO)C5=CC[C@]43C)[C@@H]2C1` displayed a TGI of over 100 µM.

As to `N=C1N(c2ccccc2)C(=O)C23CCCC2C13N1CCOCC1` (stereo not given), the TGI was over 100 µM.

As for `CCOC(=O)c1c(-c2ccccc2)[n+](=O)c2ccc(Cl)cc2n1[O-]`, the GI50 was 7520 nM and the TGI came out at 27.1 µM.

On to `CCCCOC(=O)C1CN2C=CC=NC2=NC1(C(F)(F)F)C(F)(F)F` (stereo not given), for which the TGI was over 100 µM.

`CCOC(=O)C(Cc1c2ccccc2cc2ccccc12)(NC(C)=O)C(=O)OCC`: the TGI was over 100 µM.

Molecule `Cn1c(=O)[nH]c2[nH]c3ccccc3c2c1=O` had a TGI of over 100 µM.

In turn, `CC1(C)CCC2(C(=O)OC3OC(CO)C(O)C(O)C3O)CCC3(C)C(=CCC4C5(C)CCC(OC6OC(CO)C(O)C(O)C6O)C(C)(C)C5CCC43C)C2C1` (stereo not given) returned a TGI of over 25 µM.

`CC1=C2C(=O)OCC23C=COC3(C)O1` (stereo not given) returned a TGI of over 100 µM.

On to `C=C1C(=O)O[C@@H]2C(=O)[C@@H](C)[C@@H]3C=CC(=O)[C@@]3(C)[C@@H](OC(=O)/C(C)=C\C)[C@H]12`, for which the TGI was determined as 26.6 µM.

In turn, `O=C1C2=Cc3ccccc3OC2(O)Oc2cc(O)ccc21` (stereo not given) had a TGI of over 100 µM.

In the case of `COc1cccc2c(NNc3ccccc3)c3ccc([N+](=O)[O-])cc3nc12`, the TGI was over 100 µM.

Regarding `CCCN1CN(C(C(=O)N[C@@H]2C(=O)N3C2SC(C)(C)C3C(=O)O)c2ccccc2)CSC1=S` (stereo not given in full), the TGI was over 100 µM.

Consider `COc1cc2nc(Sc3c([N+](=O)[O-])ncn3C)[nH]c2cc1OC`, for which the TGI is over 100 µM.

For the molecule `Cc1cc(O)c(C(c2cccnc2)c2c(O)cc(C)[nH]c2=O)c(=O)[nH]1`, the TGI is over 100 µM.

Molecule `CCOc1ccccc1N=Nc1c(-c2ccccc2)nn(C(=O)CC(=O)Nc2cccc(Cl)c2)c1-c1ccccc1` came in with a TGI of over 100 µM.

Turning to `N[C@H]1CCN(c2c(F)cc3c(=O)c(C(=O)O)cn4c3c2Oc2cc3c(ccc5ccccc53)cc2-4)C1`, the TGI is 6.09 µM.

For `Nc1ccc2c(c1)C(=O)N(O)C2=O`, the TGI is over 100 µM.

`CCCCCCCC/C=C/CCCCCCCC1=NC(C)(C)CN1C(C)C`: the GI50 was 1460 nM and the TGI came to 2.77 µM.

`Cc1c2oc3c(C)ccc(C(=O)NC4C(=O)NC(C(C)C)C(=O)N5CC(=O)CC5C(=O)N(C)CC(=O)N(C)C(C(C)C)C(=O)OC4C)c3nc-2c(C(=O)NC2C(=O)NC(C(C)C)C(=O)N3CC(=O)CC3C(=O)N(C)CC(=O)N(C)C(C(C)C)C(=O)OC2C)c(N)c1=O` (stereo not given) (I: TV[X44][Sar][NMeV] / II: TV[X44][Sar][NMeV]; ester I:1-I:C, II:1-II:C; linker I:N-II:N via Actinocin(9to1); configuration not given here) came in with a TGI of over 1 µM.

In the case of `O=C(O)C(CSC(c1ccccc1)(c1ccccc1)c1ccccc1)N=Cc1cccs1` (stereo not given), the TGI was over 100 µM.

As to `O=c1cc(-c2ccc(Cl)cc2)[nH]c2ncccc12`, the TGI is over 100 µM.

As for `CCCc1cc2cc(-n3nc(C)c4c3CC(C)(C)CC4=O)cc(NC3CCC(O)CC3)c2c(=O)[nH]1` (stereo not given), the GI50 was 1190 nM and the TGI was over 100 µM.

In the case of `O=C(C#CP(=O)(O)c1ccccc1)c1ccccc1`, the TGI is over 100 µM.

On to `COc1ccc(/C=C(\C#N)c2nc(N)nc(N3N=C(C)CC3(C)C)n2)c(O)c1`, for which the TGI turned out to be 45.9 µM.

On to `COc1ccc(N=c2ssc(C(=S)Nc3ccc(OC)cc3)c2S)cc1`, for which the TGI is over 100 µM.

`O=C(O)C1NCCc2c1[nH]c1ccccc21` (stereo not given) gave a TGI of over 100 µM.

`CC(=O)O[C@H]1C(=O)O[C@@H]2C[C@H]3C(C)=CC(=O)[C@@H](O)[C@]3(C)[C@H]3[C@@]4(O)OC[C@]32[C@@H]1[C@@H](C)[C@H]4O`: the GI50 was 649 nM and 248 nM; the TGI is 6.08 µM and 1.36 µM.

`CC(C)(C)[Si](C)(C)OCCCCC1CC2(S(=O)(=O)C3=CC=C=C=C3)ON1CC2S(=O)(=O)c1ccccc1` (stereo not given): the TGI is over 100 µM.

For `Nc1nc(Nc2ccccc2)sc1C(=O)c1ccc(Cl)cc1`, the TGI was over 100 µM.

`O=C(O)C1(C(=O)O)CC1(C(=O)O)C(=O)O` gave a TGI of over 100 µM.

As for `O=C(O)C(Cc1c[nH]c2ccccc12)N=Cc1nc(-c2ccccc2)oc1O` (stereo not given), the TGI is over 100 µM.

Molecule `CN=C1Nc2ccc(Cl)cc2C(c2ccccc2)=NN1C` gave a TGI of over 100 µM.

For the molecule `N#Cc1c(-c2ccccc2)c(N=Nc2ccc(F)cc2)c(=O)n2c1[nH]c1ccccc12`, the TGI is 7.18 µM.

For the molecule `CCc1ccc(Nc2cc(=O)[nH]c(SCc3ccccc3)n2)cc1`, the TGI was over 100 µM.

Consider `N.N.N.N.N.N.[I-].[Os]`, for which the GI50 was over 100000 nM and the TGI is over 100 µM.

Molecule `O=C1CCCC2=C(N1)C(=O)C=CC2=O` yielded a TGI of over 84.3 µM.

With `NNC(=O)c1ccccc1Nc1ccccc1C(=O)NN`, the TGI was over 100 µM.

On to `COc1cc2ccc3c4c(OC)cc(OC)c(OC)c4c(=O)n(C)c3c2cc1OC`, for which the GI50 is 1340 nM; the TGI was 16.7 µM and > 42.2 µM.

`Nc1ncnc2c1nc(-c1ccccc1)n2C1OC(CO)C(O)C1O` (stereo not given) came in with a TGI of over 100 µM.

Turning to `Clc1ccc(Nc2nc(Cl)c3[nH]cnc3n2)cc1Cl`, the TGI was over 100 µM.

Turning to `COC(=O)C1=CN=C(C(=O)OC)NN1`, the TGI was over 100 µM.

In turn, `O=[N+]([O-])c1cc(CCl)ccc1CCl` showed a TGI of 3.06 µM.

With `O=S(=O)(N=S(c1ccc(Cl)cc1)c1ccc(Cl)cc1)c1ccccc1`, the TGI was over 100 µM.

In the case of `O=C(/C=C\c1cccc2ccccc12)c1cccs1`, the TGI came to 28.7 µM.

`O=S(=O)(O)c1cccc2c(N=Nc3c(O)ccc4ccccc34)cccc12` had a TGI of over 100 µM.

As to `CN1CCC[C@@H]1CCO[C@](C)(c1ccccc1)c1ccc(Cl)cc1`, the GI50 was 11600 nM and the TGI amounted to 24.6 µM.

On to `Cc1c2c(nn1C(=O)c1nn(-c3ccc(Cl)cc3)cc1O)-c1ccccc1CC2`, for which the GI50 is 53 nM and the TGI is over 100 µM.

In turn, `O=C1C(=O)N(C(=O)c2ccc(Cl)c(Cl)c2)c2ccc(Cl)cc21` showed a TGI of over 100 µM.

`COc1ccc(CNc2nc3cc(C(F)(F)F)ccc3nc2C(=O)O)cc1OC` yielded a TGI of over 100 µM.

As for `CC(=O)N(C)c1ccc2c(ccc[n+]2[O-])c1[N+](=O)[O-]`, the TGI is over 100 µM.

Consider `O=S(=O)(/N=C(\NO)Nc1ccc(Cl)cc1)c1ccc(S(=O)(=O)c2ccccc2)s1`, for which the TGI is 52.8 µM.

As to `CCCCCC(O)[C@H]1C(=O)C[C@@H](O[Si](C)(C)C(C)(C)C)[C@@H]1/C=C/CCOCc1ccccc1` (stereo not given in full), the TGI was 46.1 µM.

With `O=C(Nc1ccccc1)Nc1cccc(-n2cc(-c3ccncc3)c(-c3ccc(O)c(Cl)c3)n2)c1`, the GI50 was 4700 nM and the TGI worked out at 46.2 µM.

Regarding `COc1cc(C#N)cc(OC)c1OCCOCCOc1c(OC)cc(C#N)cc1OC`, the GI50 is over 100000 nM and the TGI is over 100 µM.

`NS(=O)(=O)c1ccc(NNc2c3ccccc3nc3ccccc23)cc1` had a TGI of 21.5 µM.

For `COc1ccc2c(c1)CCc1c(-c3noc4c3CCc3cc(OC)ccc3-4)noc1-2`, the TGI was over 100 µM.

`Nc1ncnc2c1ncn2C1C=CC(CP(=O)(O)O)C1` (stereo not given): the TGI was over 100 µM.

`NC1=C(Cl)C(=O)c2ccc(S(N)(=O)=O)cc2C1=O`: the GI50 is 1870 nM and the TGI came out at 3.33 µM.

`O=S1(=O)OC(c2ccc(O)cc2)(c2ccc(O)cc2)c2ccccc21` returned a TGI of over 100 µM.

On to `COC1=NC(NC2OCC(O)C(O)C2O)=C(NC(C)=O)CN1C` (stereo not given), for which the TGI is over 100 µM.

For the molecule `C=CC1ON(C)CCc2cc(OC)c(OC)cc21` (stereo not given), the TGI was over 100 µM.

In the case of `N#CC(c1ccccc1)N1CCCN(C(C#N)c2ccccc2)C1c1ccccc1O` (stereo not given), the TGI is over 100 µM.

On to `CN1C2CCC1C(C(O)c1ccccc1[N+](=O)[O-])C(=O)C2` (stereo not given), for which the TGI is over 100 µM.

In the case of `CC(C)[Si](OC1=C(C(=O)Nc2ccccc2Cl)CCCCC1)(C(C)C)C(C)C`, the TGI is over 100 µM.

`CC(NC(=O)C(N)Cc1ccc(O)cn1)C(=O)O` (stereo not given) registered a TGI of over 100 µM.

Take `CCN(CC)CCOc1ccc(/C(=C(\C)Cc2ccc(OC)cc2)c2ccc(OC(=O)NCc3ccccc3)cc2)cc1`: the GI50 is 3720 nM and the TGI was determined as 14.4 µM.

`CC(=O)NC(CCCCNC(=O)N(CCCl)N=O)C(=O)NCc1ccccc1` (stereo not given) came in with a TGI of over 100 µM.

`Nc1cc2c3c(cccc3c1)C(=O)N(c1ccc(OCCN3CCCCC3)cc1)C2=O`: the TGI was 41.2 µM.

Take `O=C(NC1CCC(=O)N1C(=O)OCc1ccccc1)OCc1ccccc1` (stereo not given): the TGI was over 100 µM.

`CC1(C)CC(=O)C2=C(C1)NC(SSC1=C(C#N)C(c3ccc(F)cc3)C3=C(CC(C)(C)CC3=O)N1)=C(C#N)C2c1ccc(F)cc1` (stereo not given): the GI50 is 48.8 µg/mL and the TGI is over 150 µg/mL.

The molecule `CCC(C)C1NC(=O)C2CCCN2C(=O)C(CC2CO2)OC(=O)CCNC(=O)C(C)N(C)C(=O)C(C(C)C)N(C)C1=O` (stereo not given) gave a TGI of over 100 µM.

The molecule `O=c1[nH]c(-c2cccc(F)c2)nc2ccccc12` returned a TGI of over 69.5 µM.

In turn, `CC#CS(=O)(=O)c1ccccc1` had a TGI of 34.9 µM.

Source of the values: PubChem BioAssay (NCI).
